How the values were obtained:
[1] = target: T1, insulin receptor isoform B (IR-B) (human, UniProt P06213-1); test: radioligand binding; competition of cold ligand with [125I]-monoiodotyrosyl-TyrA14-insulin for human IR-B on transfected mouse fibroblasts; one-site fit; affinity relative to human insulin; details: one partner purified
T1 construct: insulin receptor, isoform B, human, on transfected mouse fibroblasts; source: mouse fibroblasts with deleted mouse IGF-1R, stably transfected with human IR-B (R-/IR-B), whole cells

IGF1 receptor (IGF1R) = target: T2, IGF1 receptor (IGF1R) (human, UniProt P08069 31-1367); test: radioligand binding; competition of cold ligand with [125I]-iodotyrosyl-IGF1 for human IGF-1R on R+39 mouse fibroblasts; one-site fit; affinity relative to IGF1; details: one partner purified
T2 construct: insulin-like growth factor 1 receptor, human, on R+39 cells; source: mouse fibroblasts with deleted mouse IGF-1R, transfected with human IGF-1R (R+39 cells), whole cells

His-tagged IGFBP3 = target: T3, His-tagged IGFBP3 (UniProt P17936); test: radioligand binding; competition of cold ligand (10^-12-10^-6 M) with [125I]-monoiodotyrosyl-Tyr2-IGF2 (43,000 cpm) for His-tagged IGFBP3 immobilized via neutravidin and Ni-NTA iBodies; 16 h at 5 °C, HEPES pH 7.6; affinity relative to IGF2; details: both partners purified
Chain of His-tagged IGFBP3 (P17936 28-291): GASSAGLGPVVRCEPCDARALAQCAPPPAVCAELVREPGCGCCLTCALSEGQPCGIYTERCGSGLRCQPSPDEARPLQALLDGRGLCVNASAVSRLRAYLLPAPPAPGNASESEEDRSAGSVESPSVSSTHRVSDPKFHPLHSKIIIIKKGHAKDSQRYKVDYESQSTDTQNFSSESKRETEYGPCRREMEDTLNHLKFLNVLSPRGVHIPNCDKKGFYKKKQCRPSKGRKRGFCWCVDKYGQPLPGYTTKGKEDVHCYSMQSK
T3 construct: also called IGBP3; source: bought: Sino Biological

[2] = target: T4, mannose-6-phosphate/IGF2 receptor (M6P/IGF2R), native in R- cells (mouse (endogenous in R- cells), UniProt Q07113 36-2483); test: radioligand binding; competition of cold ligand (10^-12-10^-6 M) with [125I]-monoiodotyrosyl-Tyr2-IGF2 (43,000 cpm) for M6P/IGF2R on R- cells; 16 h at 5 °C, 100 mM HEPES pH 7.6, 100 mM NaCl, 1% BSA; affinity relative to IGF2; details: one partner purified
T4 construct: cation-independent mannose-6-phosphate receptor / IGF2 receptor, native on R- cells (3T3-like fibroblasts from mouse embryos); source: endogenous, R- cells (mouse embryo fibroblasts with disrupted Igf1r), whole cells
T4 sequence (Q07113 36-2483): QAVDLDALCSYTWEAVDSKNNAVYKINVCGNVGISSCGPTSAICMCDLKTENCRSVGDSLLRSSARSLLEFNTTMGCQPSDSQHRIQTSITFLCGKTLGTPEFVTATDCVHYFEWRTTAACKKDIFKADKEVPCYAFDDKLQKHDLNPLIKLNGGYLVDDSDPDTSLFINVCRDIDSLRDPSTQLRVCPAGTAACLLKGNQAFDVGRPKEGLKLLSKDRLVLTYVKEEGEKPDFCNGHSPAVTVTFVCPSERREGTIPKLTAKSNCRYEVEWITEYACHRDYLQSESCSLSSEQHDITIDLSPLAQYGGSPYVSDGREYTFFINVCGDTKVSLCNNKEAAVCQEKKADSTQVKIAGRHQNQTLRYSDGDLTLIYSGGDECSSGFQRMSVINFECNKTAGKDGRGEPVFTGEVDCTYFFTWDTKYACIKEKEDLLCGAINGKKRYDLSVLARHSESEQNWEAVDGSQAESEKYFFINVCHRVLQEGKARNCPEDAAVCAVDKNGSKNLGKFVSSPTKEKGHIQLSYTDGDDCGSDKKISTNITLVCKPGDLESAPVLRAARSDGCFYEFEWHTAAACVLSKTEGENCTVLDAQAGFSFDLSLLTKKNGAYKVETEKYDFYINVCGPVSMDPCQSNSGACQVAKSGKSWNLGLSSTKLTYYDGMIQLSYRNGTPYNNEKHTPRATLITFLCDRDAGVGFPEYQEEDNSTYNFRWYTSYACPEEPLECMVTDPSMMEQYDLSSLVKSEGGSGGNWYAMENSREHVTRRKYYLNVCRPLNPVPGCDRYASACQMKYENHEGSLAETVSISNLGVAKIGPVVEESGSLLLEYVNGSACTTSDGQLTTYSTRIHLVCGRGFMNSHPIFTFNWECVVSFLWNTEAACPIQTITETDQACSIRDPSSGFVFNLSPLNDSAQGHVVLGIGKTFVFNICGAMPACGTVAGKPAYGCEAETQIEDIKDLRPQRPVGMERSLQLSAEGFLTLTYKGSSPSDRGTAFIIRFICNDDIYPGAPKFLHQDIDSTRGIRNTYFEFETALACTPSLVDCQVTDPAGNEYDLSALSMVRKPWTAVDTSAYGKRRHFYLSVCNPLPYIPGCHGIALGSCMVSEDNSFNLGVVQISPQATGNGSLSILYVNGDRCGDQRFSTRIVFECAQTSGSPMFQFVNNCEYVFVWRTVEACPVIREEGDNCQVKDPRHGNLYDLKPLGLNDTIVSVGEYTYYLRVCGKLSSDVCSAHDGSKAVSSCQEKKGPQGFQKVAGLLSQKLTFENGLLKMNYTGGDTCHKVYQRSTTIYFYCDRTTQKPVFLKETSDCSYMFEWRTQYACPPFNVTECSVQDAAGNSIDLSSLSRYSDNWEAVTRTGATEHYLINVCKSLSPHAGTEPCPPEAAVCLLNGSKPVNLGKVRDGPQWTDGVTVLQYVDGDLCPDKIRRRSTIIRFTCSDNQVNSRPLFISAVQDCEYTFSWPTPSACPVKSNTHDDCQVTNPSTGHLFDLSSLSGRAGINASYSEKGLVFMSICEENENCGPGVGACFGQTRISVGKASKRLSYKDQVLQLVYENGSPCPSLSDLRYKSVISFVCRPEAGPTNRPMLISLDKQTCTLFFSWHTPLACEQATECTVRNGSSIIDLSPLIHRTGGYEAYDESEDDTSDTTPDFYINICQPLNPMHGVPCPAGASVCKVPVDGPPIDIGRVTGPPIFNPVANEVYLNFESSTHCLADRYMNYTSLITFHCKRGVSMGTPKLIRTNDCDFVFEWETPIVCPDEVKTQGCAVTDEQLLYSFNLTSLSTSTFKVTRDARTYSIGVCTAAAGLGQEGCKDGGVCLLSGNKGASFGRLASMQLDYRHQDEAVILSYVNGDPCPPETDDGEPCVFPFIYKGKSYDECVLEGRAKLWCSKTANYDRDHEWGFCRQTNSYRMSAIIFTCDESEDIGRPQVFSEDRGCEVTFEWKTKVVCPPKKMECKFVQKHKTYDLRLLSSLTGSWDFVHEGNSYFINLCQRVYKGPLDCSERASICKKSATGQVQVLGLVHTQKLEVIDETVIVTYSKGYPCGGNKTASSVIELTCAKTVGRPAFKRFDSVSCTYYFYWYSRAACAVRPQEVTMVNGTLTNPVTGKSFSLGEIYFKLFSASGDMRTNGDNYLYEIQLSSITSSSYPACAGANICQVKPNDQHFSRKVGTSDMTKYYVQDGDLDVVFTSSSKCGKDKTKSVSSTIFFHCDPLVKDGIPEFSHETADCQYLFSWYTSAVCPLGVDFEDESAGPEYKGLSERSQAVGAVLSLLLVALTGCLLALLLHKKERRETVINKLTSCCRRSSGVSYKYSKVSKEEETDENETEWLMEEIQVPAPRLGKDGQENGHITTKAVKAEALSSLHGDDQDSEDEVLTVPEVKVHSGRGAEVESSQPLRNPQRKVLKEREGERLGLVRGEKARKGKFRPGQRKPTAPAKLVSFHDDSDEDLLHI

[3] = target: T5, insulin receptor isoform A (IR-A) (human, UniProt P06213-2); test: radioligand binding; competition of cold ligand with [125I]-monoiodotyrosyl-TyrA14-insulin for human IR-A on whole IM-9 lymphocytes; one-site fit; affinity relative to human insulin; details: one partner purified
T5 construct: The phosphorylation assays used mouse fibroblasts transfected with human IR-A (R-/IR-A), not IM-9 cells; source: endogenous, human IM-9 lymphocytes (whole cells)

Row | relative binding affinity (% of human insulin) [1] [%] | relative binding affinity (% of IGF1) (IGF1 receptor (IGF1R)) [%] | relative binding affinity (% of IGF2) (His-tagged IGFBP3) [%] | relative binding affinity (% of IGF2) [2] [%] | relative binding affinity (% of human insulin) [3] [%] | Binder
1 | 1.6 | 0.35 | 16 | 20 | 2.2 | pro-IGF2(156) (ligand, source: non-glycosylated; not shown: His6, N-terminal, cleaved; GB1, N-terminal, cleaved) not shown
2 |  | 0.2 | 18 | < 1 | 2 | glycosylated pro-IGF2(156) (ligand, glycosylated (sites and glycans not given), source: bought: Biomol (No. 97562)) not shown
